Assay [1] addresses T1, Atg7 (rat (endogenous in aortic SMC)) (UniProt Q641Y5).
T1 sequence: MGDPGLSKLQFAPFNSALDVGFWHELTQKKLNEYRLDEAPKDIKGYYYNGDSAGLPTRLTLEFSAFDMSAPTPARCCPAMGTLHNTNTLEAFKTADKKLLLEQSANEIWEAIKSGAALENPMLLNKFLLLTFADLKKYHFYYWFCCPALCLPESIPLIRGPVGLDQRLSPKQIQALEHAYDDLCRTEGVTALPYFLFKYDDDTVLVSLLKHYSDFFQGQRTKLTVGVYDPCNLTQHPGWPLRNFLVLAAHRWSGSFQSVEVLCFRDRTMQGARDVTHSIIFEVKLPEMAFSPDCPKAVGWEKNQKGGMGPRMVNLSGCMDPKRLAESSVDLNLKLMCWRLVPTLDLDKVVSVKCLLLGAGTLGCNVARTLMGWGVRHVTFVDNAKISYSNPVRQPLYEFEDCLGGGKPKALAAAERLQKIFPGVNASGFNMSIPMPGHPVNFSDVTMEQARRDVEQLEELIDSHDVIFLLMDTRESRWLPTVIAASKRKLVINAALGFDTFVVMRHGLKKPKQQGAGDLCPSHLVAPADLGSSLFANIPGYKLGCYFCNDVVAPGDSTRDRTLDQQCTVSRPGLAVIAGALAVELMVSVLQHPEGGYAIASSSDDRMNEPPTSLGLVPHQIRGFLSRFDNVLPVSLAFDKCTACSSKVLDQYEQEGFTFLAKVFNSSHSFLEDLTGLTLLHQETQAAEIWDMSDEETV
The assay is described as follows: proximity ligation; Duolink In Situ kit, SMC untreated or in EBSS 1 h, or H2O2 in complete media; fixed, permeabilised, primary Atg3 and Atg7 antibodies; confocal microscopy.

Amino acid sequences for entries named in this document (tags omitted). A change or cut given only in a name is not applied to a line headed by its entry.
UniProt Q9H1Y0: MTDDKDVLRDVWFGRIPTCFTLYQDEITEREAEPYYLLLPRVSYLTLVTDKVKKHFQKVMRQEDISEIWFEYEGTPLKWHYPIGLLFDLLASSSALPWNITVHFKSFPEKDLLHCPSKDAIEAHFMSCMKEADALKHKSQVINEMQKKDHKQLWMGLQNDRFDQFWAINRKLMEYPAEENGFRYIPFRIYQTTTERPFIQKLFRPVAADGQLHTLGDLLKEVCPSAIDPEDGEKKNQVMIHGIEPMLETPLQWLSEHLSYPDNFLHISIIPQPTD
UniProt Q6AZ50: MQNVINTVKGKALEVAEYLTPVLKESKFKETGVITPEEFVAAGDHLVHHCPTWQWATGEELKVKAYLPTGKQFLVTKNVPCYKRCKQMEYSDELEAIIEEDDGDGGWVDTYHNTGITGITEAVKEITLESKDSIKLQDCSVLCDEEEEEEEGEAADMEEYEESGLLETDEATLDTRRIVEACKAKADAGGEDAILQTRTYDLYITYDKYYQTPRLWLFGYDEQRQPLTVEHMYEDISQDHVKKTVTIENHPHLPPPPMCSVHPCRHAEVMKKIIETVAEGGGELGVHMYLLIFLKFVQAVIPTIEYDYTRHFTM
UniProt O94817: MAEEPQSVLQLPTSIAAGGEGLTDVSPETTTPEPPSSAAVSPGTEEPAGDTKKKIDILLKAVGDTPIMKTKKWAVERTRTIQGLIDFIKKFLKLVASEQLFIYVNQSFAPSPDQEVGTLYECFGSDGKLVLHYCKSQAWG
UniProt Q9NT62: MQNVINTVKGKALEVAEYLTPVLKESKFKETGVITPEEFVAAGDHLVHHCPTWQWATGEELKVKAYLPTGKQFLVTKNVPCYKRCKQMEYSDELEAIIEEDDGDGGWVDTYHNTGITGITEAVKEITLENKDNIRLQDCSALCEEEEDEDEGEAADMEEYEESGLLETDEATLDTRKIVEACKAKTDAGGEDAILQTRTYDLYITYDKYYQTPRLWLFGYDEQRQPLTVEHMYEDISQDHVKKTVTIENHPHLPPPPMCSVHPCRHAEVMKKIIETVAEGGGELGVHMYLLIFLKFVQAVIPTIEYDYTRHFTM

The target in assay [2] is T1, Atg7 (rat (endogenous in aortic SMC)). The assay is described as follows: condition: only amino acid deprivation (EBSS) with 100 µM H2O2; proximity ligation; Duolink In Situ kit, SMC in EBSS with 100 µM H2O2 for 1 h; fixed, permeabilised, primary Atg3 and Atg7 antibodies; confocal microscopy.
Assay [3] shares this target. The assay is described as follows: non-reducing SDS-PAGE with immunoblot; rat aortic SMC (untransfected, siRNA-treated or transfected), fed, amino acid starved (EBSS 1 h) with or without H2O2, or oxLDL, lysed into sample buffer with maleimide; shows covalent complexes only; complexes tested with hydroxylamine and beta-mercaptoethanol. (In general: In western blotting, separated proteins are transferred to a membrane and probed.)

Assay [4] addresses Atg5 (human (endogenous in HEK)) (UniProt Q9H1Y0). The assay can be described thus: non-reducing SDS-PAGE with immunoblot; HEK cells (untransfected or transfected), fed, amino acid starved (EBSS 1 h) with or without H2O2, lysed directly into SDS sample buffer with 100 mM maleimide; shows covalent complexes only; complexes tested with hydroxylamine and beta-mercaptoethanol.
For assay [5], the target named is T2, wild-type Atg7 (transfected) (UniProt O95352).
T2 sequence: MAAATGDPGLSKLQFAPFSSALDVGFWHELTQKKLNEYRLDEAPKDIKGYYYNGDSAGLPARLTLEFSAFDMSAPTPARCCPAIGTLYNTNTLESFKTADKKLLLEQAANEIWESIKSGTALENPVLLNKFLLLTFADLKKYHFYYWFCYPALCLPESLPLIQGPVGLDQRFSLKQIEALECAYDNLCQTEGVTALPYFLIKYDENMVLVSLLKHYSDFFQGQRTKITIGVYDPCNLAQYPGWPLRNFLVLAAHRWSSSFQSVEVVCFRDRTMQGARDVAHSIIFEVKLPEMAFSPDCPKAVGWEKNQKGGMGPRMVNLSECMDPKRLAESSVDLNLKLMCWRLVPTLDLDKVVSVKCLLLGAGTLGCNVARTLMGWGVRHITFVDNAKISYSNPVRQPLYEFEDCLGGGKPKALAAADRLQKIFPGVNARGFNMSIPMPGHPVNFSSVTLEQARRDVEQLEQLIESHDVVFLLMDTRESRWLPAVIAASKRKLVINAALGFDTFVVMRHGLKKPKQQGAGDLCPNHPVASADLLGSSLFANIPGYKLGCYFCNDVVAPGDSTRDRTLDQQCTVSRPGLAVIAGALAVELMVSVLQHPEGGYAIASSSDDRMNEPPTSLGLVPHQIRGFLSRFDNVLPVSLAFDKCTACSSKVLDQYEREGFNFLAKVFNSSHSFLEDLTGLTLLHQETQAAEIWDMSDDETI
The assay is described as follows: non-reducing SDS-PAGE with immunoblot; rat aortic SMC (untransfected, siRNA-treated or transfected), fed, amino acid starved (EBSS 1 h) with or without H2O2, or oxLDL, lysed into sample buffer with maleimide; shows covalent complexes only; complexes tested with hydroxylamine and beta-mercaptoethanol.

The target in assay [6] is T3, C572A Atg7 (UniProt O95352).
T3 sequence: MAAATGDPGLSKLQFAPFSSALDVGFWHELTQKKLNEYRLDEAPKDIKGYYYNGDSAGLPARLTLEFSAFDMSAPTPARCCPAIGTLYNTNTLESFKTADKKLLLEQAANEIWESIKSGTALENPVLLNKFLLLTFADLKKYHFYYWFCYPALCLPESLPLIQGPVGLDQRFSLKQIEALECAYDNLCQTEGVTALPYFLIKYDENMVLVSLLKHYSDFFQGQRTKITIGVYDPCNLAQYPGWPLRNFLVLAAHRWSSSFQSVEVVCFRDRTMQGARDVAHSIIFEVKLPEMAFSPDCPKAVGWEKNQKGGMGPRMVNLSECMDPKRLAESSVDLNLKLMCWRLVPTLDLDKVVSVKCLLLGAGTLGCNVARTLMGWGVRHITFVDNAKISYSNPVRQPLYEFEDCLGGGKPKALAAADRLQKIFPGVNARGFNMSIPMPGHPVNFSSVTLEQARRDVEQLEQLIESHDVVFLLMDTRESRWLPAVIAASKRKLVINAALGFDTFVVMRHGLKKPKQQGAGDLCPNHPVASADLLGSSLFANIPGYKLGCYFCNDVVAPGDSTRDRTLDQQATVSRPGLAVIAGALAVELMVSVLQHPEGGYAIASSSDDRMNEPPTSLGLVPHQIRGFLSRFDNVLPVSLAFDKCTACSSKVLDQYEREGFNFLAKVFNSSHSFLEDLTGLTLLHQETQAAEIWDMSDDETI
The assay is described as above.

In assay [7] the target is T4, recombinant human His6-Atg7 (human), O95352.
T4 chain: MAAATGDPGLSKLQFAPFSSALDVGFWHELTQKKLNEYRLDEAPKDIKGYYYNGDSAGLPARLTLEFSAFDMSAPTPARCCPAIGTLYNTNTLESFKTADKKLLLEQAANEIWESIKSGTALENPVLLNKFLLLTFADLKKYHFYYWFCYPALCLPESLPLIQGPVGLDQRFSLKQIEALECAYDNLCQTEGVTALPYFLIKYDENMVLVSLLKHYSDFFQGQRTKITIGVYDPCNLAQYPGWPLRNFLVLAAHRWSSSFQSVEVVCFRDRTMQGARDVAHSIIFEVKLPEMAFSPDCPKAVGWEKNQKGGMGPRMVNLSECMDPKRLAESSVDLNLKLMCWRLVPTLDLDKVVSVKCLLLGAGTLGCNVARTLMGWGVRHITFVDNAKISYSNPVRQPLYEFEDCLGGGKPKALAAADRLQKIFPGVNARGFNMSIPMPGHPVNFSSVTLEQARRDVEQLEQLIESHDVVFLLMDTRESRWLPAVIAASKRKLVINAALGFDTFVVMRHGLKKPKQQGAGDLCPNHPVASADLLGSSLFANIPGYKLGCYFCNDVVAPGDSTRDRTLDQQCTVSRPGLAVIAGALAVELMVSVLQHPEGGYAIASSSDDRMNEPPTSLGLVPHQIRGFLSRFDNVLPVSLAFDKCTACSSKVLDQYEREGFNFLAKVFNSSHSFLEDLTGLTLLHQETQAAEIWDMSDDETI
The assay is described as follows: non-reducing SDS-PAGE with Coomassie stain; in vitro lipidation reaction: 5 µM His-MAP1LC3B, 1 µM His6-Atg3 and His6-Atg7, 30 µM liposomes, 0.2 mM DTT, 10 mM MgCl2, 5 mM ATP, 50 mM Tris-HCl pH 7, 150 mM NaCl, 30 °C up to 60 min; stopped with sample buffer with 100 mM maleimide; shows covalent complexes only; both purified. The conditions noted are these: remark: other sources report otherwise.

No constants are given. Whether binding was seen depends on the method and setting. For some of these results: In cells and extracts the contact can be indirect. Some entries that bind do so weakly or less than the wild type. For some of these results: Where a sequence is shown, tags or fusion partners need not be part of it.

Regarding “Atg3 (from UniProt Q6AZ50 1-314) (enzyme)”, the figures for the binding result in assay [1], in assay [2] and in assay [3] were “binds”, “no binding” and “binds”, respectively.
Take Atg12 (from UniProt O94817 1-140): the binding result in assay [4] was “binds”.
Regarding “C264A mCherryAtg3 (from UniProt Q9NT62 1-314) (enzyme)”, the binding entry in assay [5] is on record as “no binding”.
“wild-type mCherry-Atg3 (from UniProt Q9NT62 1-314) (enzyme)”: the binding result in assay [6] is “no binding”.

B1: recombinant human His6-Atg7, O95352 1-703 (enzyme)
chain: MAAATGDPGLSKLQFAPFSSALDVGFWHELTQKKLNEYRLDEAPKDIKGYYYNGDSAGLPARLTLEFSAFDMSAPTPARCCPAIGTLYNTNTLESFKTADKKLLLEQAANEIWESIKSGTALENPVLLNKFLLLTFADLKKYHFYYWFCYPALCLPESLPLIQGPVGLDQRFSLKQIEALECAYDNLCQTEGVTALPYFLIKYDENMVLVSLLKHYSDFFQGQRTKITIGVYDPCNLAQYPGWPLRNFLVLAAHRWSSSFQSVEVVCFRDRTMQGARDVAHSIIFEVKLPEMAFSPDCPKAVGWEKNQKGGMGPRMVNLSECMDPKRLAESSVDLNLKLMCWRLVPTLDLDKVVSVKCLLLGAGTLGCNVARTLMGWGVRHITFVDNAKISYSNPVRQPLYEFEDCLGGGKPKALAAADRLQKIFPGVNARGFNMSIPMPGHPVNFSSVTLEQARRDVEQLEQLIESHDVVFLLMDTRESRWLPAVIAASKRKLVINAALGFDTFVVMRHGLKKPKQQGAGDLCPNHPVASADLLGSSLFANIPGYKLGCYFCNDVVAPGDSTRDRTLDQQCTVSRPGLAVIAGALAVELMVSVLQHPEGGYAIASSSDDRMNEPPTSLGLVPHQIRGFLSRFDNVLPVSLAFDKCTACSSKVLDQYEREGFNFLAKVFNSSHSFLEDLTGLTLLHQETQAAEIWDMSDDETI
With B1, the binding entry in assay [7] is recorded as “no binding”.

Source of the values: publication PMC5758830.
